Laboratory results reported in PMC4336329 (PLoS ONE, 2015).
In all, about 310,000 compounds went through this assay and about 2,200 (0.71%) showed an effect of 50% or more. The effect is printed as a negative number. Some of the results follow.

What follows are compounds tested against human ether-à-go-go-related gene (hERG) potassium channel (human, UniProt Q12809) (assay: primary screen, population patch clamp on CHO cells stably expressing hERG).
Sequence of human ether-à-go-go-related gene (hERG) potassium channel (Q12809 whole entry, looked up): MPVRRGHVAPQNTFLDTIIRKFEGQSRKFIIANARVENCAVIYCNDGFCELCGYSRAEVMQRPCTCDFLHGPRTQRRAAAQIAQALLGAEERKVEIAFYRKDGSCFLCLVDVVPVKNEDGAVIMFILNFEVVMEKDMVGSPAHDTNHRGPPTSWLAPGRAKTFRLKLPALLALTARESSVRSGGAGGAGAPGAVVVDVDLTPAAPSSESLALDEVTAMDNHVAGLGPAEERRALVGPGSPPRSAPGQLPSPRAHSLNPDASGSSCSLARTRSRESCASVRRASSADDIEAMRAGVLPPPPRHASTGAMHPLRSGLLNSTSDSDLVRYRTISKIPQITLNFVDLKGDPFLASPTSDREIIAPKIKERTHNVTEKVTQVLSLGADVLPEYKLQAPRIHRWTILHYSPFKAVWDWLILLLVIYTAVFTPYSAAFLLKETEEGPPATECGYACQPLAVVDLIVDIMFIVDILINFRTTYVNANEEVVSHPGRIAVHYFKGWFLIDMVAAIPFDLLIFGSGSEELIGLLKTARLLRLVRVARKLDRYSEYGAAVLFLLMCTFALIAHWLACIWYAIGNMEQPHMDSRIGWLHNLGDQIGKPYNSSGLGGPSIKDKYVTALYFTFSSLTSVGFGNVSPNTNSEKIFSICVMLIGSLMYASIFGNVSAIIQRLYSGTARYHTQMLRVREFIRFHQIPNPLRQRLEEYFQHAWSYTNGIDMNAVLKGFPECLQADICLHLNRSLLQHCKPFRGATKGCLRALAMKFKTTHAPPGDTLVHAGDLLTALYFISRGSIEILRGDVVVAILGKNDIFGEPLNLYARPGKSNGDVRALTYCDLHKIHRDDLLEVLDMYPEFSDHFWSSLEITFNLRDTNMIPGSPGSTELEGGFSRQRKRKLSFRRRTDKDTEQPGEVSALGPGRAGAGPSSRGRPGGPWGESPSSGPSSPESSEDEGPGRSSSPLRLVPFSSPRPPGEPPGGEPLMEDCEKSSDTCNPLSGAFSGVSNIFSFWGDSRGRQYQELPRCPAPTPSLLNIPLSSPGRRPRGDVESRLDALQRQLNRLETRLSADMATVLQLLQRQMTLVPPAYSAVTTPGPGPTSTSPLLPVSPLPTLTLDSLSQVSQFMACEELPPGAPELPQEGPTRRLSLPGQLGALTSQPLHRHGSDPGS

Row | Compound | hERG current change (%, negative = inhibition) at 1uM [%]
1 | O=S(=O)(/N=C(/Nc1ccc(Cl)c(S(=O)(=O)N2CCOCC2)c1)c1ccc(F)cc1)c1ccccc1 | 1.79
2 | CSc1cccc(CNC(=O)C2CCC(=O)N(CCCN3CCCC3=O)C2)c1 (centres unmarked) | 25.3
3 | CC(C)(C)c1csc(NC(=O)c2cccs2)n1 | 7.51
4 | CCCCNC(=O)CSc1nnc(-c2c[nH]c3ccccc23)n1CC1CCCO1 (centres unmarked) | 2.47
5 | CC(=O)Nc1ccc(OC(=O)c2cccs2)cc1 | -11.1
6 | Cc1ccc(S(=O)(=O)N2CC(=O)Nc3ccccc32)cc1 | -1.29
7 | Cn1nc(C(=O)NCCc2ccc(S(N)(=O)=O)cc2)c2c1-c1ccccc1S(=O)(=O)C2 | 11
8 | COc1ccccc1N/N=C1\COC(C)(C)CC1=O | 10.4
9 | COc1cc2nc(N(CCCN(C)C)C(=O)c3ccc(S(=O)(=O)N4CCc5ccccc54)cc3)sc2cc1OC.Cl | 4.8
10 | NC(=O)CSc1nc2cc(Cl)ccc2c(=O)n1C1CCCCC1 | 18.7
11 | CC(=O)Nc1ccc(NC2CCCCC2NS(=O)(=O)c2ccccc2)cc1 (centres unmarked) | 13.3
12 | CC(C)OC(=O)CSc1nnc(Cc2ccccc2)n1C | -0.231
13 | COc1cccc(N2CCC(N3CCN(C)C(CCO)C3)CC2)c1 (centres unmarked) | 20
14 | CCOc1ccc2nc(N/C(N)=N/C(=S)Nc3cccc(OC)c3)nc(C)c2c1 | 8.15
15 | CCOC(=O)NN1C(=O)c2ccccc2NC1c1cccs1 (centres unmarked) | -13.2
16 | COCCNC(=O)C(c1ccc(F)cc1)N(Cc1ccccc1)C(=O)CCC(=O)Nc1ccccn1 (centres unmarked) | 11.9
17 | O=C(CN1C(=O)C2C3C=CC(C4CC34)C2C1=O)Oc1ccccc1 (centres unmarked) | 12
18 | Cc1ccc(CCNC(=O)CS(=O)Cc2nc(-c3cccc(C)c3)oc2C)cc1 (centres unmarked) | 5.88
19 | Cc1ccc(N2CCN(S(=O)(=O)N(C)C)CC2)cc1C | 13.5
20 | NC(=S)N/N=C1\CC(n2nnn(-c3cccc(Cl)c3)c2=S)C2COC1O2 (centres unmarked) | -8.57
21 | CCOC(=O)C1CCN(C(=O)CN2C(=O)NC3(CCCCC3)C2=O)CC1 | 8.81
22 | CCCS(=O)(=O)N1CCCC(C(=O)NCc2cccnc2)C1 (centres unmarked) | 13.7
23 | Cc1ccc2nc(SCC(=O)OCc3ccccc3)nc(=O)n2c1 | -10.9

Row | Compound | hERG current change (%, negative = inhibition) at 1uM [%]
24 | CC(=O)c1c(N2CCN(Cc3ccccc3)CC2)nc(=S)n(Cc2ccccc2)c1C | -4.24
25 | Cn1cc(-c2ccccc2C(=O)O)c(=O)c2ccccc21 | 10.3
26 | N#Cc1c(NC(=O)CSCC(=O)O)sc2c1CCCC2 | 11.9
27 | Fc1c(F)c(C(F)(F)F)c(F)c(F)c1N/N=C\c1cccs1 | 16.6
28 | O=C(Nc1ccccc1Cl)c1cc(S(=O)(=O)N2CCCCC2)ccc1N1CCOCC1 | -5.21
29 | COc1ccc2[nH]c(C(=O)O)c(NC(=O)c3ccccc3[N+](=O)[O-])c2c1 | 10.2
30 | CCOC(=O)c1ccc(NC(=O)c2cc3ccccc3o2)cc1 | -1.6
31 | COc1cccc(-c2noc(-c3cccs3)n2)c1 | 4.78
32 | C/C(=N\NC(=O)c1cccc(Br)c1)c1ccccn1 | 3.09
33 | COc1ccccc1C(CCNS(=O)(=O)c1ccc(C)cc1)c1ccco1 (centres unmarked) | 10.3
34 | Cc1ccnc(Cc2ccccc2)n1 | 10.1
35 | COc1ccc(-c2cc(C(=O)N3CCN(c4ccccc4OC)CC3)no2)cc1 | 17.6
36 | COc1ccc(NC(=O)C2CC(=O)OC23CCCCC3)cc1 (centres unmarked) | 7.71
37 | COc1ccccc1-n1nnnc1SCC(=O)Nc1ccc(C)c(N)c1 | 12.1
38 | O=C1CC(c2c[nH]c3ccccc23)C(=O)N1 (centres unmarked) | 8.36
39 | O=C(NCCN1CCN(c2ccccc2)CC1)Nc1cccc(Cl)c1 | 8.45
40 | C/C(=N/NC(=O)CNC(=O)COc1cccc(C)c1)c1ccc(Cl)cc1 | 18.5
41 | Nc1nc(N)c(N=Nc2ccc(Cl)cc2)c(=O)[nH]1 | 12.5
42 | COc1cccc(/C=C/C(=O)c2ccc(NC3=NCCCS3)cc2)c1 | 7.27
43 | NS(=O)(=O)c1ccc(CCNC(=O)C2CCC(CNS(=O)(=O)c3ccc(Br)s3)CC2)cc1 (centres unmarked) | 15.6
44 | Cc1cc(NS(=O)(=O)c2c(C)c(C)cc(C)c2C)no1 | -3.16
45 | CCn1nnc(NC(=O)c2ccc(Br)o2)n1 | 19.8
46 | Cn1nc(C(=O)Nc2nc(-c3ccc(F)cc3)cs2)ccc1=O | 8.27

Row | Compound | hERG current change (%, negative = inhibition) at 1uM [%]
47 | O=C(Cn1nc(Cc2cccnc2)c2ccccc2c1=O)NCc1ccc2c(c1)OCO2 | 0.905
48 | CC1CCN(c2ccc(NC(=O)c3cccnc3)cc2)CC1 | 8.05
49 | COc1ccc(NC(=O)Nc2ccc3c(c2)N(C)C(=O)CS3)cc1Cl | 4.06
50 | Cc1ccc(C(c2nnnn2C2CCCCC2)N2CCc3ccccc32)cc1 (centres unmarked) | 3.37
51 | CCC1Oc2ccc(C)cc2N(CC(=O)NCCN2CCOCC2)C1=O (centres unmarked) | 16.6
52 | Cc1nc2c(n1C1CCCCC1)C(=O)c1ccccc1C2=O | 19.1
53 | COc1ccc(C(=O)NCc2nnc(SCC(=O)c3ccccc3)n2C)cc1 | -3.12
54 | Cc1c(C(=O)N2CCCCC2)c(S(=O)(=O)N2CCN(c3ccccc3F)CC2)c(C)n1C | 14.6
55 | COc1ccc(N2CCN(C(=O)C3CCN(S(=O)(=O)c4cccs4)CC3)CC2)cc1 | 6.87
56 | O=C(OCC1CC(c2ccccc2Cl)=NO1)c1ccc(Br)cc1 (centres unmarked) | 14.5
57 | Cc1c(C(=O)N2CCN(c3ccccc3)CC2)sc2nc3n(c(=O)c12)CCC3 | 16.6
58 | CCCCNC(=O)c1ccc2c(c1)S(=O)(=O)c1ccccc1C2=O | 2.68
59 | Cc1ccc(NC(=O)CS(=O)Cc2nc(-c3ccc(C)cc3)oc2C)cc1 (centres unmarked) | -6.18
60 | Cc1nn(-c2ccccc2)c(Cl)c1/C=C/C(=O)c1ccc(O)cc1 | 12
61 | Cc1[nH]c2ccc(Br)cc2c(=S)c1C/C=C/Cl | 5.3
62 | O=C(NC(=S)Nc1ccc(Cl)cc1Cl)C1CC1 | 8.58
63 | Cc1cc(C(=O)OCC(=O)NCc2ccco2)c(C)n1-c1ccccc1 | 16.3
64 | CCCCCCCN1CCC(=O)N([C@H](CO)c2ccccc2)CC1 | -25.8
65 | O=C1CC[C@H](O)CCN1[C@H](CSc1ccccc1)Cc1ccccc1 | 8.42
66 | CC(OC(=O)c1ccncc1)C(=O)Nc1ccc([N+](=O)[O-])cc1Cl (centres unmarked) | -16.4
67 | CCN1CCOC(CC(=O)Nc2cccc([N+](=O)[O-])c2)C1=O (centres unmarked) | 3.36
68 | CCC(C(=O)OCC(=O)Nc1cc(Cl)cc(Cl)c1)c1ccccc1 (centres unmarked) | 24
69 | COc1ccc(NC(=O)CSc2cc(C(=O)c3nccn3C)c3ccccc3n2)cc1 | 13.8

Row | Compound | hERG current change (%, negative = inhibition) at 1uM [%]
70 | NC(=O)c1coc(-c2ccccc2)n1 | 12.3
71 | CCC(C)NC(=O)CC(NS(=O)(=O)c1ccc(Cl)cc1)c1ccco1 (centres unmarked) | 6.27
72 | Cc1noc(C)c1COc1ccc(C(=O)OCC(=O)c2ccc3c(c2)OCCO3)cc1 | 6.25
73 | Cc1cc(C)cc(S(=O)(=O)c2cn(C)c3cc(N4CCN(C)CC4)c(F)cc3c2=O)c1 | 3.36
74 | COCCN(C(=S)Nc1cccc(C)c1)C(C)c1cccnc1 (centres unmarked) | 3.39
75 | Cc1ccc(N(CCC#N)C(=O)COC(=O)C2CCN(S(=O)(=O)c3ccc4c(c3)OCCO4)CC2)cc1 | 13.5
76 | CCc1cc2c3c(c1)C(C)CC(C)(C)N3C(=O)/C2=C1\SC(=O)NC1=O (centres unmarked) | 11.9
77 | CC1(C)CC(=O)C2=C(C1)Nc1cc(C(=O)c3ccccc3)ccc1NC2c1ccccn1 (centres unmarked) | 11.7
78 | COc1ccc(C(=O)Nc2ccccc2C(=O)NC(C(=O)NCc2ccco2)C(C)C)cc1 (centres unmarked) | 3.01
79 | COc1ccc(NC(=O)CCCCCn2nnc3ccccc3c2=O)cc1 | 14.5
80 | O=C(NCC1CCCCC1)c1ccc(Cl)nc1 | 17.4
81 | COc1cccc(-c2ccc(SCC(=O)c3ccccc3)nn2)c1 | -1.66
82 | CCC(=O)c1ccc(OCC(O)CN2CCN(c3cccc(C(F)(F)F)c3)CC2)cc1 (centres unmarked) | 10.2
83 | COc1ccc(Cc2nnc(NC(=O)c3ccc(OC)c(OC)c3)s2)cc1 | 14.3
84 | COC(=O)c1sc(-c2ccccc2)cc1NC(=O)c1ccc(OC)cc1 | 17
85 | CCc1noc(C)c1C(=O)Oc1ccc(N(C)S(=O)(=O)c2ccccc2)cc1 | 6.65
86 | CC(CNC(=O)c1cccc(Br)c1)n1cncn1 (centres unmarked) | 13.4
87 | COc1ccc(S(=O)(=O)N2CCC(C(=O)NC3CCCCC3)CC2)cc1C | 8.1
88 | C[C@H](NC(=O)c1ccco1)C(=O)Nc1ccc(S(=O)(=O)N2CCCC2)cc1 | 5.53
89 | COC(=O)c1ccc(N2CCN(S(=O)(=O)c3ccc(Br)cc3)CC2)c([N+](=O)[O-])c1 | 13
